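Each compound was tested at five concentrations against cells in 96-well plates for 48 hours. At the GI50, growth is halved. The concentration for full growth arrest is given as TGI.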
System: NCI-H322M lung
Experiment: NCI anticancer screen, dose series, 48 h

SMILES	TGI	GI50
CCCN1C(=O)/C(=C\c2ccc(OC)c(OC)c2)SC1=Nc1ccccc1	> 100 µM	
CN(/N=C/c1cccc2cccnc12)c1c([N+](=O)[O-])cc([N+](=O)[O-])cc1[N+](=O)[O-]	> 100 µM	
O=S(=O)(Nc1ccc(F)c(Cl)c1)c1ccc(-c2cnc(C3CC3)o2)cc1	17.5 µM	0.656 µM
CC(CN(C)C)C(=O)c1ccccc1 (centres undefined)	> 100 µM	
CCOC(=O)c1c(N2CCCC2)ncn(C)c1=S	> 100 µM	
COc1ccc2[nH]c3c(C)cc([N+](=O)[O-])c(C)c3c2c1	79.6 µM	
COc1ccc(C(=O)N/N=C/c2c(C)n(C)n(-c3ccccc3)c2=O)cc1	> 100 µM	
CCN(CC)c1ccc2cc(C(=O)Nc3ccc(C)cc3)c(=N)oc2c1	> 100 µM	
CN(C)c1cccc2c1C(=O)C=CC21CCc2ccc(N(C)C)c3c(N(C)C)ccc1c23 (centres undefined)	31.5 µM	
COc1nc2c(c(=O)n1C)N=C(c1ccc(Cl)cc1)CC(c1ccccc1)N2 (centres undefined)	> 100 µM	
C[C@]12CCNC(=O)C=C1CC[C@@H]1C2CC[C@@]2(C)C1CC[C@@H]2OC(=O)COc1ccc(N(CCCl)CCCl)cc1 (some centres undefined)	35.4 µM	
Cc1cc(O)c(/C=N/C(=S)Nc2ccccc2)c(=O)o1	> 100 µM	
NC(=O)c1c(NC=O)ncn1C1OCC(O)C(O)C1O (centres undefined)	> 100 µM	
COc1ccc(C2C=C(c3ccc(Cl)cc3)N=C3SC=C(C)N32)c(Br)c1 (centres undefined)	19.4 µM	5.76 µM
O=C1c2ccccc2C(=O)c2sc(Nc3ccccc3Cl)nc21	29.3 µM	
CC(C)(C)OC(=O)c1cccnc1/C=N/O	> 100 µM	
COc1ccc(Nc2nc3cc(N)cc(N)c3nc2-c2ccccc2)cc1OC	> 100 µM	25.3 µM
CCOC(=O)C(O)(C(=O)OCC)c1cc(C(C)(C)C)c(O)c(C(C)(C)C)c1	> 100 µM	
CN(C)CCNC(=O)c1cccc2ccc(-c3ccc(-c4ccccc4)cc3)nc12	25 µM	
CCS(=O)(=O)c1ccc(OC)c(Nc2ncc(-c3ccccc3Cl)o2)c1	> 25 µM	24.6 µM
CC1CN=C(c2cccc(-c3nc(-c4cccc(C5=NCC(C)N5)c4)nc(N(C)C)n3)c2)N1 (centres undefined)	3.08 µM	
COc1c2c(cc3c1C1(O)Cc4ccc5c(c4C[N+]1(C)CC3)OCO5)OCO2 (centres undefined)	> 100 µM	
COc1cccc2c1C(=O)OC2c1cccc2ccccc12 (centres undefined)	> 100 µM	
COC1C2c3cc4c(cc3CC(C#N)(c3ccccc32)N1C(=O)c1ccccc1)OCO4 (centres undefined)	> 100 µM	
CC1(C)CCCCCC(C)(CCCO)C1=O (centres undefined)	> 100 µM	

SMILES	TGI	GI50
CCOc1ccc(O)cc1[P+](c1ccccc1)(c1ccccc1)c1ccccc1	76.1 µM	
NC(Cc1ncccn1)C(=O)O (centres undefined)	> 100 µM	
COc1ccccc1NS(=O)(=O)c1ccc2oc(SC(C)C)nc2c1	79.2 µM	28.1 µM
O=C(Nc1cc(Oc2cc(F)c(NC(=O)C3(C(=O)Nc4ccc(F)cc4)CC3)cc2F)ccn1)C1CC1	8.52 µM	2.85 µM
Cc1cnc(Nc2ccc(N3CCN(C)CC3)cc2)nc1Nc1ccc(Cl)c(NS(=O)(=O)C(C)(C)C)c1	15.6 µM	0.214 µM
Cc1cccc2c(N)c3cccc(C(=O)NCC[N+]4(Cc5ccc([N+](=O)[O-])cc5)CCOCC4)c3nc12	> 100 µM	
CCN(CC)CCn1[nH]c2c3ccc(=O)cc3sc3c(NCCN)ccc1c32	3.29 µM	
CCn1c(=O)c2nc(SC)sc2n(-c2ccccc2)c1=O	> 100 µM	
c1ccc([As]=[As]c2ccccc2)cc1 (centres undefined)	3.98 µM	1.99 µM
CC(C)(C)OC(=O)CN1CCN(CC(=O)N2CCN(C(=O)OCc3ccccc3)CC2)CCN(CC(=O)OC(C)(C)C)CCN(CC(=O)N2CCN(C(=O)OCc3ccccc3)CC2)CC1	29.8 µM	
O=C(CCc1nnc2s/c(=C\c3ccccc3Cl)c(=O)n12)Nc1cc(Cl)ccc1Cl	> 100 µM	
COc1cccc(/C(C)=N/NC(=O)CSc2nc3ccccc3c(=O)n2CCc2ccc(S(N)(=O)=O)cc2)c1	24 µM	5.36 µM
C#CCN(C(=O)C(F)(F)F)c1ccc(C(=O)c2ccc(N(CC#C)C(=O)C(F)(F)F)cc2)cc1	> 100 µM	
Clc1ccccc1C(Nc1ncccn1)Nc1ncccn1	> 100 µM	
NCCCCCCNCc1cccc2ccccc12	> 100 µM	
CO[C@@H]1C[C@H](OC(N)=O)[C@@H]2C=C[C@@H]3/C=C(C)/C=C/[C@@H](C)[C@H](/C(C)=C/[C@@H](C)NC(C)=O)OC(=O)/C=C/C=C(C)\C=C\[C@]3(C)[C@@H]2C1	5.89 µM	
COc1cccc2cc(C(C)=O)c(=O)oc12	> 100 µM	
O=C1c2ccccc2C(=O)c2c(NCC3CO3)ccc(NCC3CO3)c21 (centres undefined)	> 53.2 µM	
Nc1nc(N)c2cc(Sc3cccc(C(F)(F)F)c3)ccc2n1	15.9 µM	
Nc1ccccc1C#C/C=C\C#Cc1c(F)c(F)c(F)c(F)c1F	89 µM	25.3 µM
CCOC(=O)CN1CC(C2=C(O)CN(CC(=O)OCC)C2=O)=CC1=O	> 100 µM	
COc1ccc(-n2c(=O)n(-c3ccccc3)c(=O)n2-c2ccc(OC)cc2)cc1	> 100 µM	
C=CCOC(=O)C1CCC(=O)N1C(=O)C(Cl)Cl (centres undefined)	> 100 µM	
S=C=NCCc1ccccc1	5.36 µM	
CCn1c2ccccc2c2ccc(C3C(C(=O)OC)=C(C)NC(C)=C3C(=O)OC)cc21	> 100 µM	

SMILES	TGI	GI50
CN1CCN(Cc2ccc3c(NNC(=O)c4ccccc4)nc4cc(F)ccc4n23)CC1	> 100 µM	0.345 µM
O=[N+]([O-])/C(C(Cl)=C(Cl)Cl)=C(\N1CCCCC1)n1nnc2ccccc21	32.4 µM	
C=CCCCCOC1C=CC(O)C(CO)O1 (centres undefined)	> 100 µM	
CCCCCCCCCCCCCC(=O)CSCCNC(=O)CCNC(=O)[C@@H](O)C(C)(C)COP(=O)(O)OP(=O)(O)OCC1OC(n2cnc3c(N)ncnc32)C(O)C1OP(=O)(O)O (some centres undefined)	42.2 µM	
Cc1ccc(S(=O)(=O)N/N=C2/CC3CCC4CC2CC34)cc1 (centres undefined)	> 100 µM	
CCOC(=O)C(CNc1ccc(O)cc1)NC(=O)c1ccccc1 (centres undefined)	> 100 µM	
CCCN(CCC)c1c([N+](=O)[O-])cc(C(=O)N(CCO)CCO)cc1[N+](=O)[O-]	> 100 µM	
S=C(N1CCN(c2cccc(Cl)c2)CC1)N1CCN(c2cccc(Cl)c2)CC1	> 100 µM	
COc1ccc(/C=C\c2cc(OC)c(OC)c(OC)c2)cc1OCC(=O)Nc1ccc2nc(C)sc2c1	> 100 µM	6.73 µM
CN1C(=O)CC2CCC(=O)N2c2cccnc21 (centres undefined)	> 100 µM	
COC1CCC(=O)N1CN(C(C)=O)c1ccc(C)cc1 (centres undefined)	> 100 µM	
CC1C2=C(CCCC2=O)N(c2ccc(Cl)cc2)C2=C1C(=O)CCC2	> 100 µM	
O=C(OC/C=C1C=C(OC(=O)c2ccccc2)/C(=N/N(C(=O)c2ccccc2)c2ccccc2)O\1)c1ccccc1	22.8 µM	
Cc1c(C(N)=O)sc2c1c(=O)n(Cc1ccccc1)c1nnc(-c3ccc(Br)cc3)n21	21.8 µM	1.38 µM
COc1cccc(C2C3=C(COC3=O)N(CCO)c3cc4c(cc32)OCO4)c1 (centres undefined)	> 50 µM	2.12 µM
CCOC(=O)Cc1cnc(NC(NC(=O)CC)(C(F)(F)F)C(F)(F)F)s1	> 100 µM	
N#CN1CC[C@H](C(=O)Nc2cc3cc(C(N)=O)ccc3cn2)C1	3.67 µM	0.112 µM
CC(C)/C(=N\[N+](C)(C)C)c1ccccc1	> 100 µM	
CC1NC(=O)C2=C1C(N)=NC(=O)C2 (centres undefined)	> 100 µM	
c1ccc2c(c1)ccn1ccc3c4ccccc4nc-3c21	1.78 µM	
C/C=C/COC(=O)CO[N+](=O)[O-]	> 100 µM	
CC(=O)c1cc(C(=O)c2ccc3c(c2)Sc2ccccc2N3)c2c(C)cccn12	> 100 µM	0.701 µM
CC/C=C/C[C@H](O)[C@H]1C[C@H]2O[C@H](CC(=O)OC)C[C@H]2O1	> 100 µM	

Reference: PubChem BioAssay (NCI)
